The values that follow come from patent US20240076343A1 (CEPHALON, published 2024).

The target in assay [1] is T1, high-affinity hIL-2 receptor (IL-2Rαβγ) on NK-92 cells (human, UniProt P01589 22-272; P14784 27-551; P31785 23-369).
T1 sequence 1: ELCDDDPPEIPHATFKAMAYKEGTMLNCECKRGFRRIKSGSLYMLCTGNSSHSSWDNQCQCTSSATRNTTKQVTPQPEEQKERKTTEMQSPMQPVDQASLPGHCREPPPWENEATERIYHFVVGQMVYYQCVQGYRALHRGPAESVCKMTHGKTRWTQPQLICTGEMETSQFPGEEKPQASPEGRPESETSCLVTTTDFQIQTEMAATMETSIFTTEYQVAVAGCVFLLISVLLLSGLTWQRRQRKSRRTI
T1 sequence 2: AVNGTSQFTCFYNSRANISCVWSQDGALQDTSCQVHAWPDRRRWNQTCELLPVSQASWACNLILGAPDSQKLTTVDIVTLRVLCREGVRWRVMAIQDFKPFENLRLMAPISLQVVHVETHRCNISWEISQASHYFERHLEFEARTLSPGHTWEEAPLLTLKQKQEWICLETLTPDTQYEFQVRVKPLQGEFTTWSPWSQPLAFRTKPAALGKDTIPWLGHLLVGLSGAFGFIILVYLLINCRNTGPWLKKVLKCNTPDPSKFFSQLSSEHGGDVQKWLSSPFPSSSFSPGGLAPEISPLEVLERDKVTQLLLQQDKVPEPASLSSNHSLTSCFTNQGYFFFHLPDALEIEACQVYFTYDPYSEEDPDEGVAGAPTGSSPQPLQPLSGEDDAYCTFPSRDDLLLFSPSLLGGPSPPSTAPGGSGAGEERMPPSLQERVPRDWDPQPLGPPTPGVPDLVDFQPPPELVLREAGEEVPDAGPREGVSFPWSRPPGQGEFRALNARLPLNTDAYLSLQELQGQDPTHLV
T1 sequence 3: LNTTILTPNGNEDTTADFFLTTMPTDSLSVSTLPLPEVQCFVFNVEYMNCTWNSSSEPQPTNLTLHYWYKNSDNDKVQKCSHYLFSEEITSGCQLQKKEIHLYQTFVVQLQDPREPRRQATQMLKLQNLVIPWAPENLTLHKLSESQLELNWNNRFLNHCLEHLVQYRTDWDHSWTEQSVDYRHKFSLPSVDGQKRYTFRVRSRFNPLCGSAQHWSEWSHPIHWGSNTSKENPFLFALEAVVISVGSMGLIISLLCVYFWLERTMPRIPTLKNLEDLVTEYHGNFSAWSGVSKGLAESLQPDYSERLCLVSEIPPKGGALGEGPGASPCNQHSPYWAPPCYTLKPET
In words: cell-based or functional assay.

The target in assay [2] is T2, intermediate-affinity hIL-2 receptor (IL-2Rβγ) on TF1+IL-2Rβ cells (human, UniProt P14784 27-551; P31785 23-369).
T2 sequence 1: T1 sequence 2
T2 sequence 2: T1 sequence 3
In words: cell-based or functional assay.

B1: C51E6-5-hIgG4-df-hIL-2 (D20A/R38E) (other)
heavy: QVQLVQSGSELKKPGASVKVSCKASGYSLYGTSMHWVRQAPGQGLEWMGYISPFTGRATYAQGFTGRFVFSLDTSVSTAYLQISSLKAEDTAVYYCARDYDYRYYYAMDYWGQGTTVTVSSASTKGPSVFPLAPCSRSTSESTAALGCLVKDYFPEPVTVSWNSGALTSGVHTFPAVLQSSGLYSLSSVVTVPSSSLGTKTYTCNVDHKPSNTKVDKRV[not shown - about 350 residues with a human IgG4 Fc and changes]
light: EIVLTQSPDFQSVTPKEKVTITCTASESVPPQFLHWYQQKPDQSPKLLIYASRERASGVPSRFSGSGSGTDFTLTINSLEAEDAATYYCHQFHRSPLTFGGGTKLEIKRTVAAPSVFIFPPSDEQLKSGTASVVCLLNNFYPREAKVQWKVDNALQSGNSQESVTEQDSKDSTYSLSSTLTLSKADYEKHKVYACEVTHQGLSSPVTKSFNRGEC
As for B1, in assay [1], the “Agonistic Activity (NK-92)” value is 70% and the “Fold change from rhIL-2 (NK-92)” value is 4320 fold. For the same molecule, in assay [2], the “Agonistic Activity (TF1 + IL-2Rβ)” value stood at 60% and the “Fold change from rhIL-2 (TF1 + IL-2Rβ)” value was > 10000 fold.

B2: 1H3-hIgG4-L6-hIL-2 (D20A/R38E) (other)
heavy: EVQLVESGGGLVQPGRSLKLSCAVSGFTFSDYAMAWVRQAPKKGLEWVATISYDGSRTYYRDSVKGRFTISRDNAKITLYLQMDSLRSEDTATYYCARHGSGYFDYWGQGVMVTVSSASTKGPSVFPLAPCSRSTSESTAALGCLVKDYFPEPVTVSWNSGALTSGVHTFPAVLQSSGLYSLSSVVTVPSSSLGTKTYTCNVDHKPSNTKVDKRV[not shown - about 350 residues with a human IgG4 Fc and changes]
light: DTVLTQSPALAVSPGERVTISCRASESVRTGVHWYQQKPGQQPKLLIYGASNLESGVPARFSGSGSGTDFTLTIDPVEADDTATYFCQQSWNDPFTFGSGTKLEIKRTVAAPSVFIFPPSDEQLKSGTASVVCLLNNFYPREAKVQWKVDNALQSGNSQESVTEQDSKDSTYSLSSTLTLSKADYEKHKVYACEVTHQGLSSPVTKSFNRGEC
Consider B2, for which, in assay [1], the “Fold change from rhIL-2 (NK-92)” value was ~177 fold. For the same molecule, in assay [2], the “Fold change from rhIL-2 (TF1 + IL-2Rβ)” value is > 10000 fold.

B3: 1H3-hIgG4-df-hIL-2 (D20A/R38E) LC fusion (other)
heavy: EVQLVESGGGLVQPGRSLKLSCAVSGFTFSDYAMAWVRQAPKKGLEWVATISYDGSRTYYRDSVKGRFTISRDNAKITLYLQMDSLRSEDTATYYCARHGSGYFDYWGQGVMVTVSSASTKGPSVFPLAPCSRSTSESTAALGCLVKDYFPEPVTVSWNSGALTSGVHTFPAVLQSSGLYSLSSVVTVPSSSLGTKTYTCNVDHKPSNTKVDKRV[not shown - human IgG4 Fc with S228P (EU numbers)]
light: DTVLTQSPALAVSPGERVTISCRASESVRTGVHWYQQKPGQQPKLLIYGASNLESGVPARFSGSGSGTDFTLTIDPVEADDTATYFCQQSWNDPFTFGSGTKLEIKRTVAAPSVFIFPPSDEQLKSGTASVVCLLNNFYPREAKVQWKVDNALQSGNSQESVTEQDSKDSTYSLSSTLTLSKADYEKHKVYACEVTHQGLSSPVTKSFNRGEC[not shown - about 150 residues with changes]
Take B3: the “Fold change from rhIL-2 (NK-92)” value in assay [1] was > 10000 fold. For the same molecule, in assay [2], the “Fold change from rhIL-2 (TF1 + IL-2Rβ)” value is > 10000 fold.

B4: 1H3-hIgG4-L6-hIL-2 (D20A/R38E) LC fusion (other)
heavy: B3 heavy
light: DTVLTQSPALAVSPGERVTISCRASESVRTGVHWYQQKPGQQPKLLIYGASNLESGVPARFSGSGSGTDFTLTIDPVEADDTATYFCQQSWNDPFTFGSGTKLEIKRTVAAPSVFIFPPSDEQLKSGTASVVCLLNNFYPREAKVQWKVDNALQSGNSQESVTEQDSKDSTYSLSSTLTLSKADYEKHKVYACEVTHQGLSSPVTKSFNRGECSGGGGS[not shown - about 150 residues with changes]
For B4, in assay [1], the “Fold change from rhIL-2 (NK-92)” value was > 10000 fold. Further, in assay [2], the “Agonistic Activity (TF1 + IL-2Rβ)” value was 30% and the “Fold change from rhIL-2 (TF1 + IL-2Rβ)” value was ~2160 fold.
